In all, about 110,000 compounds were measured (“z-score”: median about -0.1, highest 2% from about 2 on). Some of the results follow.

From PubChem BioAssay AID488969 (Vanderbilt High Throughput Screening Facility, 2010) come the findings set out here.

The target of this test is Metabotropic glutamate receptor 8 (Rattus norvegicus) (UniProt P70579). Put plainly: mGluR8 Gi/Go-coupled signaling modulation – cell-based, rat, thallium flux, HTS, primary screen (AID 488969). To be noted: HEK293 rat mGluR8, GIRK (G protein-gated inwardly rectifying potassium channel) thallium flux, FluoZin2; at 10 µM; stronger effect = higher value; submaximal glutamate (EC20) added with thallium.
UniProt P70579, sequence (P70579 whole entry, looked up): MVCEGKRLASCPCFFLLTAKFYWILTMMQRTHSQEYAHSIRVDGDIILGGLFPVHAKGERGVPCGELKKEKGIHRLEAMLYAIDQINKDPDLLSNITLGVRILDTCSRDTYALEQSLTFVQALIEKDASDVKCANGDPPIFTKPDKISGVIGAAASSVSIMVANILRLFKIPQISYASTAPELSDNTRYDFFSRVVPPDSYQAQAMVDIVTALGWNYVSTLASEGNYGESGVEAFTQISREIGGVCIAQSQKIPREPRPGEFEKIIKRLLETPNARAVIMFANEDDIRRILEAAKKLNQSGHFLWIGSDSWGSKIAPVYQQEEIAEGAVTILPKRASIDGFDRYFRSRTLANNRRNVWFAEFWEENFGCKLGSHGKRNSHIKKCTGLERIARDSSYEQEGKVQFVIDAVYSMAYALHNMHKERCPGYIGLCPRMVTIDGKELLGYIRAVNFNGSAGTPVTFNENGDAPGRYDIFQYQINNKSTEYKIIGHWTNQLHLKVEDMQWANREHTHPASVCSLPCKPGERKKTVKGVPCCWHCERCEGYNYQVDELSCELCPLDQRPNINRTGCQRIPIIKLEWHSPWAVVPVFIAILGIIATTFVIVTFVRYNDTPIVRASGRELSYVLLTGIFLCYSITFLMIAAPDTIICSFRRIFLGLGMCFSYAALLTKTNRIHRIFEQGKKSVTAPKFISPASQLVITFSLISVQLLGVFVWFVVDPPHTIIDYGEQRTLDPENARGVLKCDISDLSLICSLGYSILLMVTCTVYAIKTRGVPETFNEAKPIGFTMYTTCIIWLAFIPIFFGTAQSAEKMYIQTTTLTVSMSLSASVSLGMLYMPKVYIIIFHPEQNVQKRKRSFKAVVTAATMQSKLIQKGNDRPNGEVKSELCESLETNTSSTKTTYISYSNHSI
`CCS(=O)(=O)N1CCCC(C(=O)NC2CCCCC2C)C1` (stereo not given) yielded a z-score of 0.637.

As to `Cc1sc(NC(=S)NC(=O)C(C)(C)C)c(C(N)=O)c1C`, the z-score was -0.0974.

Molecule `O=C1[C@@H]2[C@@H]3C[C@@H]([C@H]4ON=C(c5ccc(Cl)cc5)[C@@H]34)[C@@H]2C(=O)N1c1ccc2c(c1)OCO2` had a z-score of 0.168.

Take `CCc1nc(C)ccc1OCC(=O)O`: the z-score is -0.972.

For the molecule `O=C(NCCN1C(=O)C2C3C=CC(C3)C2C1=O)N1CCOCC1` (stereo not given), the z-score was -0.146.

Consider `CCOc1ccc(N2CC(C(=O)Nc3ccccc3N3CCOCC3)CC2=O)cc1` (stereo not given), for which the z-score was -0.169.

For `Cc1cc(C)c2c(c1)OC(O)(C(F)F)CC2=O` (stereo not given), the z-score was -0.115.

As for `CCCCc1ccc(NC(=S)NCc2cccs2)cc1`, the z-score was found to be 1.5.

Regarding `O=C(c1cn(-c2ccccc2)nc1-c1ccc(Cl)cc1)N1CCOCC1`, the z-score was -0.177.

For `Cc1cccc(N(C(=O)c2ccc(CN3CCOCC3)o2)C(C(=O)NC(C)(C)C)c2ccc(F)cc2)c1` (stereo not given), the z-score was -0.312.

For `O=C(Nc1ccccc1C(=O)N1CCNCC1)c1ccco1`, the z-score was -0.0845.

`CCC(=O)c1ccc(N2CCN(C(=O)c3ccc(Br)cc3)CC2)c(F)c1` came in with a z-score of 0.654.

On to `O=C(N/N=C/C=C\c1ccccc1[N+](=O)[O-])c1cc(-c2ccc3ccccc3c2)n[nH]1`, for which the z-score was determined as 0.00824.

`OC(COc1cccc(OCC(O)CN2CCCC2)c1)CN1CCCC1` (stereo not given) showed a z-score of -0.0758.

Consider `CCOC(=O)c1c(Cc2cccc(Cl)c2)c[nH]c1C`, for which the z-score is -0.0958.

As to `COc1ccccc1C1C2=C(CC(C)(C)CC2=O)Nc2nnnn21` (stereo not given), the z-score is -1.1.

As for `COc1ccccc1CC(=O)O/N=C(\N)Cc1cccc2ccccc12`, the z-score was -0.241.

With `Cc1ccccc1NC(=O)CSc1nnc(-c2ccco2)c(-c2ccco2)n1`, the z-score is -0.301.

In the case of `O=C(O)C1CSC2(CCN(Cc3ccccc3)CC2)N1` (stereo not given), the z-score was -0.0401.

`O=C(NC1CC1)c1cccc(Br)c1` returned a z-score of -0.408.

`c1csc(CNc2ccc3c(c2)OCCO3)c1` registered a z-score of -0.264.

The molecule `Cn1c(SCCC(=O)O)nnc1-c1ccncc1` gave a z-score of 0.356.

For the molecule `COc1ccc(CCN(Cc2cc3cc(C)c(C)cc3nc2Cl)C(=O)C2CC2)cc1`, the z-score stood at 0.0611.

In turn, `CCc1c(C(=O)NCCc2ccc(OC)c(OC)c2)[nH]c(C)c1C(C)=O` yielded a z-score of -0.963.

Molecule `COc1ccc(N2CCN(S(=O)(=O)/C=C/c3ccccc3)CC2)cc1` returned a z-score of -0.057.

For `Cc1ccc(S(=O)(=O)NCCSc2nnnn2C)cc1`, the z-score stood at 0.945.

`O=C(NCC1CCCO1)C(c1cccs1)N(Cc1cccs1)C(=O)c1ccc(-c2ccccc2)[nH]1` (stereo not given) gave a z-score of -0.486.

`O=c1c2c3c(sc2nc(NCCO)n1CCc1ccccc1)CCCCC3` registered a z-score of 0.773.

`CCOC(=O)Cc1csc(NC(=O)CCN2C(=O)c3ccccc3C2=O)n1`: the z-score was 0.0459.

In the case of `Nc1cc(C(=O)O)ccc1N1CCCCC1`, the z-score came to 0.666.

On to `Cc1nnc(Nc2ccc3c(c2)OCO3)c2ccccc12`, for which the z-score was -0.611.

In the case of `Cc1cc(C)n2nc(C(=O)Nc3nccs3)nc2n1`, the z-score was -0.0873.

In turn, `COc1ccc(Cn2nnnc2C(c2cccs2)N2CCSCC2)cc1` (stereo not given) showed a z-score of 0.0357.

Molecule `Cc1ccc(Nc2nc(N)c([N+](=O)[O-])c(N3CCOCC3)n2)cc1` showed a z-score of -0.21.

Take `CCN(CC)S(=O)(=O)c1ccc(NCC2COc3ccccc3O2)c([N+](=O)[O-])c1` (stereo not given): the z-score is -0.00635.

In turn, `O=C(Cc1ccccc1)Nc1nnc(-c2cccc([N+](=O)[O-])c2)s1` yielded a z-score of 0.0139.

Molecule `Cc1ccc(NC(=O)c2cc(-n3cnnc3)ccc2Cl)c(C)c1` registered a z-score of -0.139.

In turn, `Cc1ccc(S(=O)(=O)n2cnc3cc([N+](=O)[O-])ccc32)c(C)c1C` showed a z-score of -0.143.

For `CC(C)c1ccc(NCCC(=O)c2ccc(Br)cc2)cc1`, the z-score was -0.0651.

With `Cc1cc(C)cc(NC(=O)C2CCCN(S(=O)(=O)c3cnc[nH]3)C2)c1` (stereo not given), the z-score was found to be 0.76.

With `O=C(NC1(C(F)(F)F)C(=O)Nc2c1c(=O)[nH]c(=O)n2Cc1ccco1)C1CCCCC1` (stereo not given), the z-score was -0.645.

The molecule `CCOc1ccc(-c2nnn(CC(=O)N3CCCC3)n2)cc1OCC` had a z-score of 0.874.

`COCCn1c(Cc2ccccc2)nnc1SCC(=O)Nc1cc(C)on1` had a z-score of 0.197.

`CC(=O)NC1(c2cccc(F)c2)CCN(CC(=O)NC(C)C)CC1`: the z-score is 0.0156.

Take `CCOC(=O)c1[nH]c(C)c(C(=O)OCC(=O)NC(=O)NC(C)(C)C)c1C`: the z-score was determined as 0.435.

Molecule `COCCCNC(=O)c1ccc(N2CCCC2)c(NS(=O)(=O)c2ccc(C)cc2)c1` registered a z-score of 0.547.

As for `C=CCc1ccc(OCCOc2ccc(/C=N/n3cnnc3)cc2OCC)c(OC)c1`, the z-score is 0.211.

Molecule `COc1ccc(OC)c(C(=O)CSc2nnc(-c3cccs3)o2)c1` showed a z-score of -0.111.

`CCOc1ccc(C(O)c2nccn2C)cc1` (stereo not given) displayed a z-score of -0.0577.

`O=C(OCc1csc(Nc2ccccc2)n1)c1ccc(Cl)cc1`: the z-score was 0.122.

`CCc1nnc(NC(=O)[C@@H](NC(=O)c2cccc(C)c2)C(C)C)s1` gave a z-score of -0.2.

Molecule `Cc1cc(C(C#N)c2ccccc2)n2ncnc2n1` (stereo not given) came in with a z-score of -0.354.

`CC(OC(=O)Cc1coc2ccc3ccccc3c12)C(=O)Nc1ncc(Cl)cc1Cl` (stereo not given) registered a z-score of -0.092.

Regarding `Cc1nn(C(C)C(=O)NNC(=S)Nc2ccc(Cl)cc2)c(C)c1[N+](=O)[O-]` (stereo not given), the z-score is -0.802.

Molecule `CC(C)(C)c1ccc(C(=O)Oc2ccc3c(c2)OCC3=O)cc1` gave a z-score of -0.0889.

As for `COc1ccc(C(=O)Nn2c(C3CCC3)nc3ccccc3c2=O)c(OC)c1`, the z-score came out at 0.565.

Consider `O=C(COc1ccc(Br)cc1)N1CCOCC1`, for which the z-score turned out to be 0.263.

In the case of `CCOC(=O)c1c(C)n(C)c2ccc(OC)c(NC(=O)CN3CCN(C(=O)c4ccco4)CC3)c12`, the z-score was 0.582.

Turning to `COc1ccc(-c2cc(-c3ccc(OC)c(OC)c3)n[nH]2)c(O)c1`, the z-score was -0.365.

`O=C(NCc1ccc2c(c1)OCO2)C1CCN(S(=O)(=O)c2ccc(Br)s2)CC1` registered a z-score of -0.0496.

Molecule `Clc1ccccc1CN(Cc1ccco1)Cc1nnnn1C1CCCC1` came in with a z-score of 0.401.

Take `Clc1ccc2c(c1)C(C1=NCCN1)c1ccccc1CS2` (stereo not given): the z-score is 0.865.

`CN1CCN(C(=O)c2ccccc2N(Cc2ccccc2)S(C)(=O)=O)CC1`: the z-score worked out at 0.174.

Molecule `O=C(CN1C(=O)NC2(CCCCCCC2)C1=O)NCc1ccc2c(c1)OCO2` returned a z-score of -0.128.

Molecule `Cc1ccc(S(=O)(=O)Cn2nnnc2C(C(C)C)N2CCN(Cc3ccco3)CC2)cc1` (stereo not given) showed a z-score of -0.429.

`COc1ccc(NC(=S)NNC(=O)C(C)n2nc(C)c([N+](=O)[O-])c2C)cc1` (stereo not given): the z-score is -0.173.

`COCc1ccccc1Cn1cnc2c1c(=O)n(C)c(=O)n2C` registered a z-score of -0.16.

The molecule `COc1cccc(C(=O)Nc2cc([N+](=O)[O-])ccc2N2CCN(C)CC2)c1` showed a z-score of -0.261.

Turning to `Cc1ccccc1SCC(=O)Nc1cccc(C#N)c1`, the z-score was -0.026.

The molecule `CC(C)CCn1nnnc1C(c1ccc(F)cc1)N1CCN(C(=O)c2ccco2)CC1` (stereo not given) gave a z-score of 0.229.
